The list shows a part of the results.
System: PfHDP1 homeodomain (GST-tagged)
Experiment: gcPBM binding intensity (ln(normalized median fluorescence intensity)); higher = stronger DNA binding
Summary of the method: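 Each value is the highest Masliner-normalised natural-log median intensity across replicate spots of either orientation of a probe. The probes were primer-extended double-stranded 36-bp intergenic genomic sequences on an Agilent 4 × 180k array, alongside negative controls, exposed for 1 h to GST-tagged P. falciparum DNA-binding domains expressed in E. coli. Bound protein was picked up with Alexa488 anti-GST antibody and scanned at 488 nm.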

Row | Sequence | gcPBM binding intensity (ln)
1 | TCATTGTTTAATATGTGTCCTCAAAATTTGTTATAT [XGTACX_site677] | 6.39
2 | ACAAATGGAACTCCTACAAAAAATTTCCATAATATT [XGTACX_negctrl_site132] | 6.03
3 | TAAACCTATTATACGGGTACTTATTTGATTCTTATA [XGTACX_site5292] | 6.15
4 | AAAAATAAAACAATTACACACATAACTTTATTTTTA [CACACA_site6563] | 6.69
5 | AAAAGCTTAAAAAATTGTACATAAATGAATAAATAT [XGTACX_site5201] | 6.21
6 | GAACTCATTTAATATTGTACATTCTGATATTTTTTA [XGTACX_site5995] | 6.47
7 | ACCACCATATAACATACATGCATCTTTTTTCCCTTC [TGCATGCA_site583] | 7.51
8 | AGACGTAATAATTGTTGTACATAAAAAAATAAGAAA [XGTACX_site7594] | 6.75
9 | AACAATTGTTAAAGGTGTACCATATGTATATAAGAA [XGTACX_site5723] | 7.39
10 | AAAAAATGTTAAAAAAGTACTTTCTTTATTTAATAA [XGTACX_site2908] | 6.02
11 | ATGATATTATAAAAAAGTACATATGTATATAATTAT [XGTACX_site7652] | 7.12
12 | AATATATGATAATTTTTTTTTTTTTTTTTTAAATAT [CACACA_negctrl_site452] | 5.87
13 | ATTTAATACAAATACACACACAAATATGTACCTATA [CACACA_site7718] | 7.02
14 | ACAATTCATTAGAATTGTACAAAAGGATGAAGCGAA [XGTACX_site5242] | 7.22
15 | ATTTTTTTTTTTTAATTTGATATTTGCGTTTATATA [CACACA_negctrl_site1305] | 6.36
16 | AATGCACAGCTCTTAGGCAAAAGTGGGTATTTACAC [GTGCAC_negctrl_site579] | 8.63
17 | TGTATAAAAAACTAATGTACAAATGACAAGATATCT [XGTACX_site4600] | 6.64
18 | CATTTAGTTCATACTATGCACACTACGTATATTTTT [CACACA_site2694] | 8.79
19 | TCCTTGTTTGGTTTTTTTTTTTCTTCTTTTTTTTTT [CACACA_negctrl_site1355] | 6.28
20 | TTAAATGTTATATATTGTACATATAATATATGTATT [XGTACX_site1492] | 6.11
21 | ACACATACACATTAGGTGCACATAATTCAATATTAC [GTGCAC_site9862] | 10.6
22 | ATATATATATAAAGGAGTACATACATTAAAAAAAAA [XGTACX_site1095] | 8.3

Row | Sequence | gcPBM binding intensity (ln)
23 | TCTTATTTAAAAATAGCACACATTATATATATATAT [CACACA_site8916] | 9.04
24 | AAAAAACATACATACACACACATAAATATATATATT [CACACA_site2699] | 6.85
25 | ATATATACCTATAACACACACATATTTATATTTATA [CACACA_site7257] | 6.74
26 | CATATAATATATCAATGTACATATATATTTTATAAA [XGTACX_site5901] | 6.59
27 | TTAGCAACTATTACTACACACATTTTTATATAATTT [CACACA_site1372] | 6.84
28 | TAATAAAAAAAGTGCACACACATAATATATATATAT [CACACA_site3340] | 9.23
29 | TATAAATCAATATGTACACACATATACATGTTGAAT [CACACA_site7460] | 6.36
30 | ATTATATACATATATATTGTATATACTATACATATG [XGTACX_negctrl_site545] | 6.56
31 | ATTGTCAAAACACGCACACACATATACATAATAACA [CACACA_site1742] | 7.54
32 | TCTTATAACAAAAAAAAATAAAAAATAAAACTATAT [GTGCAC_negctrl_site11] | 6.43
33 | CATATAAATAGACACACACACACATATAAATAAATA [CACACA_site7156] | 6.79
34 | AAATAATATTGAAAAGTGCATATTTTTGTTGATATA | 7.4
35 | AAATTTAAATAATGTGCGCATCTTAATATATATAAG [GTGCAC_site9890] | 7.49
36 | TTTTGAGAATATATGGGTACAAATAAATAAAAATAT [XGTACX_site1933] | 7
37 | ATATAACATATTAATAATATATTTATAATATGTTTA [GTGCAC_negctrl_site168] | 6.32
38 | TTATGTTATATATACACACACAAAAGAAAAAAAAAA [CACACA_site2987] | 6.48
39 | AGGTTAAAAATAAATACACACATTTGATGTCTGTAT [CACACA_site6596] | 6.38
40 | AACGCTTATTAGTTGTTGTATATGTGTTCACATATT [CACACA_negctrl_site379] | 6.24
41 | ATATAAATAAAGAAATATATATATATATATATATAT [GTGCAC_negctrl_site668] | 9.4
42 | AAAAGGTGGAAAAATGCATGCAGGCTATTCTATATA [TGCATGCA_site1034] | 6.36
43 | AATTACATATAATACTGTACGCTAATAAGAAAAAAA [XGTACX_site7413] | 6.61
44 | TTCCACCAATATATATGTACTTATAATATATATATA [XGTACX_site8700] | 8.23

Row | Sequence | gcPBM binding intensity (ln)
45 | AAAAAACACGGACACACACACATATACATACATACA [CACACA_site5470] | 7.35
46 | ATTTATAGAGCTATATGTACATATATATATATTATT [XGTACX_site3704] | 6.62
47 | AATATAAATAATGTTAAACACACATACCGATATATA [CACACA_site8869] | 6.7
48 | GATCTATTGAGTGATACATGCAGGAAAATTAAAAAC [TGCATGCA_site729] | 7.02
49 | TTTTTATTATAAGGTCGTACAATTGTAATTATTGTA [XGTACX_site1413] | 6.45
50 | AAAAAGAAAAAAGAAAGTACAAATATACACATTTTT [XGTACX_site3343] | 6.2
51 | TTTTTTTTTTTATGCTCACACATTAATTTTTATACA [CACACA_site4527] | 8.86
52 | TATGTATGTATGTATGTATGCATGTCTAACACCTAA [TGCATGCA_site360] | 6.75
53 | ACACATGTATTTGGTGCATGTTGTTAAAAAAATATT [TGCATGCA_site795] | 9.61
54 | TCATAGCTAGGATAACGTACAGAAAAGTGAAAAATT [XGTACX_site3322] | 6.78
55 | ATTCTAGTAATATATGTATATTTATATATGTATGTG [XGTACX_negctrl_site419] | 6.36
56 | TTTTTTTTTTGTTGTTGTACTCTTATATTTTTATAT [XGTACX_site6178] | 6.72
57 | ATATATATGTATATAACATGCAACATTTAATAATAA [TGCATGCA_site1018] | 6.79
58 | TTTTTTTTTTTTTTTTAACACACATATATATATTTT [CACACA_site8585] | 6.42
59 | ATAAAAGATTTATACATACACACATATTATATTCAC [CACACA_site3714] | 6.53
60 | TTTAATTTATATAATGATATTAAGTTGGTTATTAGG [CACACA_negctrl_site329] | 6.1
61 | ATATAGTTTCACATGTGTACATAAAAATACACTTGT [XGTACX_site3339] | 6.59
62 | ACAAAAATGAGATGGTGTACGCACAAATAAATAATA [XGTACX_site5221] | 7.75
63 | ACATATATATTTATATGTACATATATTTATATATAT [XGTACX_site7469] | 6.46
64 | AAAAATATTTAAAATACACACATATCTATAATATAT [CACACA_site7032] | 6.36
65 | GTGGTATAAATTTTATGTACTTAATAACTCATTAAT [XGTACX_site5555] | 6.47
66 | AAATCCATATAGGATTGTACATATATTATATATATA [XGTACX_site8818] | 7.39

Row | Sequence | gcPBM binding intensity (ln)
67 | CAAAATGTTAAAGATACACACCTAACAAACACAAAA [CACACA_site4685] | 6.83
68 | AATTCTTTACTATTCACACATATAAATATTCACTTT [CACACA_site4886] | 6.77
69 | AAAAAAAAAAAACACACACACACAAATACATACACA [CACACA_site706] | 6.9
70 | CAATGTATTTAGAATACATGCATATTTTCATAATGT [TGCATGCA_site221] | 6.24
71 | AATTATGCACAAATCACACATATAAAATAAAAAGTG [CACACA_site4474] | 11.1
72 | AAATATTTATATGTTACACACTGTTTATAATTTTCT [CACACA_site4868] | 6.26
73 | TTAATAATTATAACATGTACATACACTAAATTTTTT [XGTACX_site8953] | 6.77
74 | CAAATATATATTTATTGTACATATTGTTTATATGGT [XGTACX_site5246] | 6.94
75 | CTCATCCTTACATACACACACATATATTTATTTATA [CACACA_site6202] | 7.51
76 | AAATTATAGAATCATTGTACTTTTTTTTTTTTTTTT [XGTACX_site1280] | 6.19
77 | ATAATAACTTGTAAGGTGCATTTTATGTTTTCTTAA | 8.12
78 | TATGCTTCAAAATTGTGTACATATATAATATATTAT [XGTACX_site6760] | 7.01
79 | TACTTACCTATAATAACACACAAGAAAAAAATAAAA [CACACA_site6616] | 6.76
80 | AAATAATATCATAAATGTACATATATCATATTATTA [XGTACX_site5372] | 6.29
81 | TATAAAATTATGTGTACACAAATATAACTTTTCTTT [CACACA_site5554] | 6.49
82 | CATCCAAAAATATTATGTACTAAATTTGGATGTATT [XGTACX_site3954] | 6.1
83 | AAAATATTTCTTCTTTGTACTTATATATATTTAATT [XGTACX_site5446] | 6.85
84 | TATTCATATTCCAAGTGTACACATAAATCCCTAATA [XGTACX_site4131] | 7.05
85 | TTATTTAAACAAATCACACACAAATATAAATACATA [CACACA_site5158] | 6.71
86 | AACACCAAACTAAATGTACACACATACATAAATATA [CACACA_site8298] | 6.59
87 | AATATAAACACAAACACACACATATATATATATATA [CACACA_site4307] | 9.47
88 | TTTTAAAACTACATTGGTACACAATAAAAAAAAAAA [XGTACX_site2793] | 6.57

Source: the supplement of paper PMC11417369
